For 102 sequences, TetR repression strength results are on record in a collection of fitness landscapes (doi:10.1038/s41467-024-54723-y).

Over roughly 18,000 sequences, “TetR repression strength (sort-seq, GFP reporter)” has its median near 0.23; the highest 2% begin near 0.68. The list shows a part of the results.

The test deals with TetR (class B, Tn10) (UniProt P04483). Put plainly: TetR repression strength (sort-seq, GFP reporter) (relative to tetO2 = 1); higher = stronger repression. The following applies: E. coli. In a few lines: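 E. coli SIG10-MAX carried a low-copy plasmid library with eight randomized operator positions between a constitutive promoter and sfGFP, with TetR constitutively expressed. Cells grew 5 h at 37 °C in LB with 50 µg/mL chloramphenicol, then 10^6 cells were FACS-sorted into 13 fluorescence bins, each Illumina-sequenced. Repression strength is the top bin index plus one minus the read-weighted mean bin, divided by the wild-type operator value. Three independent transformations; variants with ≥30 reads in all replicates and CV ≤0.5 were averaged.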
UniProt P04483, sequence (P04483 whole entry): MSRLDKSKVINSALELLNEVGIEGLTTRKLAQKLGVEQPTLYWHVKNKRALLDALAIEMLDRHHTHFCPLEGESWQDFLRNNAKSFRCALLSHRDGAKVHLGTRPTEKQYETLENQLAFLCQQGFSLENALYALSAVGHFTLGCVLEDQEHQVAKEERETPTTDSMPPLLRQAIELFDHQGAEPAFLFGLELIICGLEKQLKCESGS
Consider TCCCTTGTAGTGCCTGAGA, for which the TetR repression strength is 0.181.
For TCCCGGTCAGTAGGGGAGA the value was 0.392.
For TCCCATACAGTCCGCGAGA the value was 0.364; for TCCCATCCAGTGTACGAGA, 0.262; for TCCCGCAAAGTCCCTGAGA, 0.363.
For TCCCTGTTAGTGCAAGAGA the value was 0.553.
For the sequence TCCCAGTAAGTCGGGGAGA, the TetR repression strength amounted to 0.698.
Sequence TCCCATCCAGTAATTGAGA registered a TetR repression strength of 0.516.
For the sequence TCCCTTACAGTTGGAGAGA, the TetR repression strength was 0.0566.
Under TCCCATCCAGTTCGAGAGA stands 0.32; under TCCCAGATAGTCGGAGAGA, 0.199; under TCCCTTATAGTTATGGAGA, 0.0518.
For TCCCCCCGAGTAAGTGAGA the value was 0.278.
Under TCCCACCAAGTGGAAGAGA stands 0.35.
With TCCCGGCAAGTGCAGGAGA, the TetR repression strength came to 0.0479.
Under TCCCTGGCAGTGGGTGAGA stands 0.291; under TCCCTCTTAGTGACGGAGA, 0.207.
Consider TCCCAGATAGTGGGTGAGA, for which the TetR repression strength was determined as 0.211.
TCCCGCATAGTCTAGGAGA displayed a TetR repression strength of 0.308.
For TCCCGTCGAGTCCTCGAGA the value was 0.0322.
For TCCCCCTCAGTATAGGAGA the value was 0.214; for TCCCTAACAGTCTCCGAGA, 0.331; for TCCCCGTAAGTTGGCGAGA, 0.00451.
For TCCCTTCTAGTCGTTGAGA the value was 0.416; for TCCCGTATAGTTGATGAGA, 0.103; for TCCCGTACAGTTGTCGAGA, 0.342.
Regarding TCCCCTTAAGTAGCGGAGA, the TetR repression strength came out at 0.138.
Under TCCCATCAAGTTCTGGAGA stands 0.363; under TCCCTTGCAGTGTTGGAGA, 0.258; under TCCCACGGAGTTACCGAGA, 0.302.
Under TCCCCTGAAGTAGGTGAGA stands 0.158.
Under TCCCTGATAGTTGCGGAGA stands 0.06; under TCCCGATAAGTGTGGGAGA, 0.0255.
In turn, TCCCAGCGAGTATAGGAGA showed a TetR repression strength of 0.333.
For TCCCATGCAGTACGTGAGA the value was 0.259; for TCCCAGGAAGTTGGGGAGA, 0.233.
Under TCCCGCGAAGTAGCAGAGA stands 0.114; under TCCCTTCAAGTGCCGGAGA, 1.13.
For TCCCTTTAAGTACCTGAGA the value was 0.523; for TCCCGCGTAGTAAAGGAGA, 0.304; for TCCCTAAGAGTAAAAGAGA, 0.839.
As for TCCCCGACAGTGATGGAGA, the TetR repression strength stood at 0.108.
For TCCCATCCAGTTGAGGAGA the value was 0.266; for TCCCGTGCAGTAATCGAGA, 0.749; for TCCCGCACAGTAAGCGAGA, 0.108.
Regarding TCCCGCGAAGTCGCGGAGA, the TetR repression strength was determined as 0.138.
For TCCCCAGAAGTACAGGAGA the value was 0.134.
For TCCCCTTGAGTGCGAGAGA the value was 0.282.
For TCCCGGGGAGTCTGTGAGA the value was 0.275.
On to TCCCAAGGAGTGAGGGAGA, for which the TetR repression strength came to 0.12.
For TCCCATCTAGTGGGTGAGA, the TetR repression strength was found to be 0.262.
Under TCCCGGTAAGTGAAAGAGA stands 0.684.
For TCCCACGGAGTCAATGAGA the value was 0.309; for TCCCCACAAGTGTCAGAGA, 0.352.
TCCCGGCCAGTTGCGGAGA displayed a TetR repression strength of 0.268.
For TCCCGCCTAGTAGAGGAGA the value was 0.25; for TCCCGTGTAGTAAGGGAGA, 0.307; for TCCCTTCTAGTGTTGGAGA, 0.397.
For TCCCGAGGAGTTGGAGAGA the value was 0.14.
Turning to TCCCACGCAGTGGTAGAGA, the TetR repression strength is 0.153.
For TCCCTCTCAGTTACTGAGA the value was 0.703.
For TCCCGGCGAGTTACGGAGA the value was 0.399; for TCCCTGAAAGTTGGGGAGA, 0.0848; for TCCCCGTCAGTCGGCGAGA, 0.317.
Under TCCCAGTCAGTATCGGAGA stands 0.078; under TCCCTGCCAGTTTGAGAGA, 0.129.
TCCCGATCAGTACGGGAGA displayed a TetR repression strength of 0.0578.
TCCCCAGCAGTTTCCGAGA: the TetR repression strength came out at 0.275.
For TCCCGCGCAGTATCTGAGA the value was 0.195; for TCCCAATTAGTCTGTGAGA, 0.245; for TCCCGCGAAGTGTACGAGA, 0.183.
Under TCCCGGACAGTCCGTGAGA stands 0.196; under TCCCGGTGAGTTGCGGAGA, 0.138.
Under TCCCACAGAGTGCTAGAGA stands 0.218.
On to TCCCACGGAGTCCGGGAGA, for which the TetR repression strength came to 0.0173.
TCCCGATGAGTGTTCGAGA showed a TetR repression strength of 0.28.
Under TCCCCTGAAGTCGACGAGA stands 0.179; under TCCCCGTCAGTGATAGAGA, 0.35.
For TCCCTTCTAGTGGGTGAGA the value was 0.431; for TCCCCCAGAGTACAAGAGA, 0.378.
For TCCCCGTTAGTTAGGGAGA the value was 0.144; for TCCCCGTAAGTTCCTGAGA, 0.231.
Consider TCCCTATGAGTAAAAGAGA, for which the TetR repression strength came to 0.24.
For TCCCATCGAGTCGTCGAGA the value was 0.578.
Under TCCCATGCAGTTCATGAGA stands 0.216; under TCCCAGGGAGTGCTTGAGA, 0.258.
Under TCCCGAATAGTTTTGGAGA stands 0.327; under TCCCGTCGAGTTGCAGAGA, 0.368.
Take TCCCGGCAAGTTGCAGAGA: the TetR repression strength was 0.115.
For TCCCCTTAAGTGGGCGAGA the value was 0.0367; for TCCCTCGCAGTTTTCGAGA, 0.322; for TCCCGGCCAGTGAATGAGA, 0.507.
Under TCCCGGTGAGTGGGTGAGA stands 0.459; under TCCCTTATAGTGGGGGAGA, 0.161; under TCCCCGGGAGTAGGAGAGA, 0.448.
For TCCCACGAAGTGGGCGAGA the value was 0.104.
Sequence TCCCCAGGAGTAATTGAGA yielded a TetR repression strength of 0.0981.
For TCCCGCGGAGTGTCTGAGA the value was 0.322.
Under TCCCTTAAAGTTGCAGAGA stands 0; under TCCCCTCTAGTGTTAGAGA, 0.0774; under TCCCTCTAAGTCGGGGAGA, 0.415.
For TCCCTGCAAGTAGGTGAGA the value was 0.0583.
